This assay concerns the target T1, STING (Homo sapiens, UniProt Q86WV6).
T1 construct: gene STING1; hSTING-CTD
Nature of the assay: SPR (Biacore T200, CM5 chip, steady-state […] fit); supported by competition in biotin pull-down. It is filed as binding.

T1 sequence (Q86WV6 whole entry): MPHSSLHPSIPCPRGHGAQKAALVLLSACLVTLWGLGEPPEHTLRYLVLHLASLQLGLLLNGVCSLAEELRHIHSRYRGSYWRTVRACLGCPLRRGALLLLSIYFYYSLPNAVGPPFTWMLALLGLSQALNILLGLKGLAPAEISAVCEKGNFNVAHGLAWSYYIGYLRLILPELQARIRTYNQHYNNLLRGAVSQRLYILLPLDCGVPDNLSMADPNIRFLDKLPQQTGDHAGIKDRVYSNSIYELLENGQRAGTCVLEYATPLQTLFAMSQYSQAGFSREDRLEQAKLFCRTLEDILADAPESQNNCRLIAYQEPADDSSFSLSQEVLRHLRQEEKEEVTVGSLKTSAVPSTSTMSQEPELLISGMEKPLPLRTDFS

Consider `C=C[C@]12CN(C)[C@@H]3[C@H]4CO[C@H](C[C@H]41)[C@]1(C(=O)N(OC)c4ccccc41)[C@@H]32` [GS, Gelsevirine], for which binding was characterised by a dissociation constant (Kd) of 27.6 µM.

What is called Kd is the free concentration of one partner at which half of the binding sites on the other are occupied at equilibrium, for simple one-to-one binding. Read a low Kd as higher affinity.

The values are drawn from paper PMC10424845, “Gelsevirine is a novel STING-specific inhibitor and mitigates STING-related inflammation in sepsis” (Frontiers in Immunology, 2023).
